This is one part of the list. Repeats are few or missing, and single values can be far off.
Experiments:
Test in all cases: cell count relative to DMSO control; melanoma cells; higher = more viable cells
Settings in all cases: library dose: standard library concentration; 72 h
SkMel28 = system: SkMel28
SkMel2 = system: SkMel2
SkMel30 = system: SkMel30
SkMel5 = system: SkMel5
UACC257 = system: UACC257
UACC62 = system: UACC62
WM115 = system: WM115
WM1716 = system: WM1716
WM1745 = system: WM1745
WM3526 = system: WM3526
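Further: cells treated in 1,536-well plates, then fixed and DAPI-stained, with nuclei counted from automated high-throughput microscope images.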

Row | SMILES | cell count (SkMel28) | cell count (SkMel2) | cell count (SkMel30) | cell count (SkMel5) | cell count (UACC257) | cell count (UACC62) | cell count (WM115) | cell count (WM1716) | cell count (WM1745) | cell count (WM3526)
1 | CN1CCN(c2ccc3nc(-c4c(N)c5c(F)cccc5[nH]c4=O)[nH]c3c2)CC1 [Dovitinib] + O=C(O)c1ccc2c(c1)nc(Nc1cccc(Cl)c1)c1ccncc12 [CX4945] (first compound 0.5 µM, partner dose 2 µM) | 43.7% | 45.2% | 50.5% | 43.5% | 89.1% | 67.8% | 61.4% | 86.4% | 47.9% | 47.9%
2 | CN1CCN(c2ccc3nc(-c4c(N)c5c(F)cccc5[nH]c4=O)[nH]c3c2)CC1 [Dovitinib] + CC1(C)NC(=O)N(c2ccc([N+](=O)[O-])c(C(F)(F)F)c2)C1=O [nilutamide] (first compound 0.5 µM, partner dose 5 µM) | 82.6% | 76.2% | 81% | 93% | 106% | 67.4% | 71.7% | 87.2% | 66.2% | 84.4%
3 | C[C@@H](Oc1cc(-c2cnn(C3CCNCC3)c2)cnc1N)c1c(Cl)ccc(F)c1Cl [Crizotinib] + O=C(O)[C@@H]1[O][Sb](=[O])([O][Sb]2(=[O])[O][C@H]([C@H](O)CO)[C@H](O)[C@H](C(=O)O)[O]2)[O][C@H]([C@H](O)CO)[C@@H]1O [stibogluconate] (first compound 1 µM, partner dose 10 µM) | 99% | 110% | 115% | 129% | 114% | 104% | 67.8% | 103% | 106% | 102%
4 | CS(=O)(=O)CCNCc1ccc(-c2ccc3ncnc(Nc4ccc(OCc5cccc(F)c5)c(Cl)c4)c3c2)o1 [lapatinib] + C=C(c1ccc(C(=O)O)cc1)c1cc2c(cc1C)C(C)(C)CCC2(C)C [Bexarotene] (first compound 4 µM, partner dose 10 µM) | 61.8% | 79.8% | 84.4% | 49.3% | 82.7% | 37.8% | 82.7% | 90.3% | 90.6% | 66%
5 | C[C@@H](Oc1cc(-c2cnn(C3CCNCC3)c2)cnc1N)c1c(Cl)ccc(F)c1Cl [Crizotinib] + CC1(C)NC(=O)N(c2ccc([N+](=O)[O-])c(C(F)(F)F)c2)C1=O [nilutamide] (first compound 1 µM, partner dose 5 µM) | 57.6% | 69.9% | 84.3% | 59.8% | 84.1% | 81.5% | 53.4% | 86.9% | 63.6% | 79.3%
6 | CS(=O)(=O)CCNCc1ccc(-c2ccc3ncnc(Nc4ccc(OCc5cccc(F)c5)c(Cl)c4)c3c2)o1 [lapatinib] + C[C@]1(c2nc3c(C(N)=O)cccc3[nH]2)CCCN1 [Veliparib] (first compound 4 µM, partner dose 7 µM) | 57.2% | 80.6% | 98.4% | 52.6% | 109% | 41.5% | 63.6% | 96.7% | 61.6% | 77.9%
7 | CS(=O)(=O)CCNCc1ccc(-c2ccc3ncnc(Nc4ccc(OCc5cccc(F)c5)c(Cl)c4)c3c2)o1 [lapatinib] + CC(=O)c1c(C)c2cnc(Nc3ccc(N4CCNCC4)cn3)nc2n(C2CCCC2)c1=O [palbociclib] (first compound 4 µM, partner dose 0.2 µM) | 52.5% | 56.6% | 58.1% | 50.3% | 78.5% | 51.6% | 56.1% | 44.7% | 75% | 46.9%
8 | CNC(=O)c1cc(Oc2ccc(NC(=O)Nc3ccc(Cl)c(C(F)(F)F)c3)cc2)ccn1 [sorafenib] + O=C(O)c1ccc2c(c1)nc(Nc1cccc(Cl)c1)c1ccncc12 [CX4945] (first compound 2 µM, partner dose 2 µM) | 94.8% | 48.3% | 70.9% | 68.9% | 79.7% | 80.5% | 92.2% | 101% | 63.2% | 64.4%
9 | CN1CCN(c2ccc3nc(-c4c(N)c5c(F)cccc5[nH]c4=O)[nH]c3c2)CC1 [Dovitinib] + O=C(O)c1ccc(-c2c[nH]c3ncc(-c4ccccc4)cc23)cc1C1CCCC1 [GSK650394] (first compound 0.5 µM, partner dose 0.8 µM) | 52.4% | 44.2% | 71% | 45.3% | 65.9% | 65.5% | 32.6% | 65.1% | 41.3% | 79.3%
10 | C[C@@H](Oc1cc(-c2cnn(C3CCNCC3)c2)cnc1N)c1c(Cl)ccc(F)c1Cl [Crizotinib] + O=C(Nc1cccc(Cl)c1)Nc1ncc(CCNc2ncnc3ccsc23)s1 [SNS314] (first compound 1 µM, partner dose 0.004 µM) | 47.4% | 78.7% | 84.9% | 88.5% | 63.2% | 70% | 31.8% | 56.8% | 62.8% | 60.7%
11 | C=CCNC1=C2C[C@@H](C)C[C@H](OC)[C@H](O)[C@@H](C)/C=C(\C)[C@H](OC(N)=O)[C@@H](OC)/C=C\C=C(/C)C(=O)NC(=CC1=O)C2=O [Tanespimycin] + Cc1ccc(NC(=O)c2cccc(N(C)C)c2)cc1NC(=O)c1ccc(O)cc1 [ZM336372] (first compound 0.01 µM, partner dose 10 µM) | 68.5% | 80.2% | 116% | 81.4% | 102% | 66.8% | 41.5% | 118% | 55.8% | 68%
12 | CN1CCN(c2ccc3nc(-c4c(N)c5c(F)cccc5[nH]c4=O)[nH]c3c2)CC1 [Dovitinib] + Cn1nnc2c(C(N)=O)ncn2c1=O [temozolomide] (first compound 0.5 µM, partner dose 10 µM) | 41.3% | 70.8% | 65.1% | 64.5% | 81.7% | 59.6% | 50% | 59.2% | 52.1% | 61.2%
13 | CNC(=O)c1cc(Oc2ccc(NC(=O)Nc3ccc(Cl)c(C(F)(F)F)c3)cc2)ccn1 [sorafenib] + COc1cc2c(Oc3ccc4[nH]c(C)cc4c3F)ncnc2cc1OCCCN1CCCC1 [cediranib] (first compound 2 µM, partner dose 2 µM) | 100% | 69.1% | 103% | 83.6% | 82.8% | 61% | 63.3% | 93.1% | 64.1% | 74.4%
14 | CNC(=O)c1cc(Oc2ccc(NC(=O)Nc3ccc(Cl)c(C(F)(F)F)c3)cc2)ccn1 [sorafenib] + COc1cc(Nc2ncc(F)c(Nc3ccc4c(n3)NC(=O)C(C)(C)O4)n2)cc(OC)c1OC [Tamatinib] (first compound 2 µM, partner dose 2 µM) | 80.4% | 74.3% | 76.3% | 52.3% | 84% | 73.6% | 69.4% | 73.1% | 47.7% | 55.2%
15 | CNC(=O)c1cc(Oc2ccc(NC(=O)Nc3ccc(Cl)c(C(F)(F)F)c3)cc2)ccn1 [sorafenib] + Cc1nc(Nc2ncc(C(=O)Nc3c(C)cccc3Cl)s2)cc(N2CCN(CCO)CC2)n1 [dasatanib] (first compound 2 µM, partner dose 0.02 µM) | 69.6% | 82.5% | 89.9% | 62.4% | 71.1% | 82.4% | 74.2% | 72.7% | 46.3% | 85.8%
16 | C=CCNC1=C2C[C@@H](C)C[C@H](OC)[C@H](O)[C@@H](C)/C=C(\C)[C@H](OC(N)=O)[C@@H](OC)/C=C\C=C(/C)C(=O)NC(=CC1=O)C2=O [Tanespimycin] + Cn1cncc1[C@@](N)(c1ccc(Cl)cc1)c1ccc2c(c1)c(-c1cccc(Cl)c1)cc(=O)n2C [tipifarnib] (first compound 0.01 µM, partner dose 0.05 µM) | 37.9% | 64.1% | 90% | 60.4% | 110% | 66.9% | 23.3% | 60.8% | 61.8% | 70.9%
17 | CN1CCN(c2ccc3nc(-c4c(N)c5c(F)cccc5[nH]c4=O)[nH]c3c2)CC1 [Dovitinib] + Nc1cccc2c1CN(C1CCC(=O)NC1=O)C2=O [lenalidomide] (first compound 0.5 µM, partner dose 5 µM) | 57.1% | 71.9% | 76.7% | 61.1% | 75.7% | 69% | 65.8% | 69.9% | 48.6% | 68%
18 | C[C@@H](Oc1cc(-c2cnn(C3CCNCC3)c2)cnc1N)c1c(Cl)ccc(F)c1Cl [Crizotinib] + C[C@@H]1CCN(C(=O)CC#N)C[C@@H]1N(C)c1ncnc2[nH]ccc12 [CP690550] (first compound 1 µM, partner dose 5 µM) | 103% | 105% | 109% | 69.5% | 84% | 83.9% | 97.5% | 80% | 98.7% | 87.9%
19 | CN1CCN(c2ccc3nc(-c4c(N)c5c(F)cccc5[nH]c4=O)[nH]c3c2)CC1 [Dovitinib] + Cc1nc(Nc2ncc(C(=O)Nc3c(C)cccc3Cl)s2)cc(N2CCN(CCO)CC2)n1 [dasatanib] (first compound 0.5 µM, partner dose 0.02 µM) | 52.8% | 57.9% | 89.3% | 59.1% | 83.9% | 61.9% | 57% | 59% | 23.4% | 63.6%

From the supplement of paper PMC4604168 (melanoma cell lines)
